21 sequences from the supplement of paper PMC11417369 can be followed below.

± gives the standard deviation of the averaged measurements. The list shows a part of the results.

This assay concerns PfAP2-LT AP2 domain (GST-tagged). The assay is described as follows: gcPBM binding intensity (ln(normalized median fluorescence intensity)); higher = stronger DNA binding. In short, it runs like this: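 An Agilent 4 × 180k array of primer-extended double-stranded 36-bp intergenic genomic probes, with negative controls, was incubated for 1 h with GST-tagged P. falciparum DNA-binding domains expressed in E. coli. Alexa488 anti-GST antibody detected bound protein, scanned at 488 nm. Binding intensity is the highest Masliner-normalised natural-log median intensity across replicate spots of either probe orientation.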
As to “TTTTTTTTTTTTTGCACACACATAATAGGTACAAAT [CACACA_site3577]”, the “gcPBM binding intensity (ln)” value was 9.22 ± 0.41.
With “CTAAAATACAGACACACACACACATATATATATATA [CACACA_site4150]”, the “gcPBM binding intensity (ln)” value worked out at 10.07 ± 0.021.
As for “TTAAAATAGGGCGAAGAAATTTTCTGTAAACATTTG [CACACA_negctrl_site1010]”, the “gcPBM binding intensity (ln)” value came to 8.38 ± 0.53.
With “ATATGCTTATATTATATATATAAGTCTATATATTTT [XGTACX_negctrl_site349]”, the “gcPBM binding intensity (ln)” value came to 8.71 ± 0.38.
For “GGGTTTTTAAAATGTAGTACATATGTAAACATCAAA [XGTACX_site1262]”, the “gcPBM binding intensity (ln)” value came out at 8.69 ± 0.57.
As for “ATATATATAAAATGTTGTACATATATATAAATAATA [XGTACX_site1661]”, the “gcPBM binding intensity (ln)” value turned out to be 8.67 ± 0.44.
On to AGGTTTTCTTAAATAGTGCATTATAACAAAAATAAA, for which the “gcPBM binding intensity (ln)” value came out at 8.3 ± 0.45.
On to “TCACGTATGTATATTACACACATACATATTATTCAC [CACACA_site4276]”, for which the “gcPBM binding intensity (ln)” value is 9.17 ± 0.33.
For the sequence CATAAATAAGCTTTAGTGCATTATATTTAAATTTTT, the “gcPBM binding intensity (ln)” value is 8.55 ± 0.4.
In the case of “ATATTATATATATATAAACACACAAATATTTTTATA [CACACA_site8486]” it was 8.72 ± 0.4; in that of “ATAAAATGAACCTTTTGTACATATATATATATATAT [XGTACX_site4610]”, 9.48 ± 0.23; in that of “AACATCTCATATCGTACTACACTCATATATATATAT [XGTACX_site170]”, 9.3 ± 0.18.
The same measure for “TGAATATTTCTATATACACACATATATATATATATA [CACACA_site3451]”: 9.53 ± 0.28.
Take “TTTAATAATAATAAAAGTACACAAATATAAAGGAAA [XGTACX_site5203]”: the “gcPBM binding intensity (ln)” value worked out at 8.73 ± 0.43.
Turning to “TAAAGTAAAGACATACTTATTTTCCATCCACTTCTT [CACACA_negctrl_site1288]”, the “gcPBM binding intensity (ln)” value was 8.71 ± 0.58.
In the case of “AAACAATAAAAGATTACACACATATATAGCATCTAT [CACACA_site5012]” it was 9.06 ± 0.3; in that of “TTTCATTTGTCGTTATGTACTTATTAAATATTATTA [XGTACX_site7709]”, 8.75 ± 0.4; in that of “TCTGTATATTTCGCGCGTACGAACAAATTGATAATT [XGTACX_site7965]”, 8.92 ± 0.4.
In the case of “ATATAATATGGTATTACACACTGTTAAAAGTATGGC [CACACA_site5190]” it was 8.95 ± 0.4; in that of “ATATATATTTTTATAACACACAATGAAGTACATTAC [CACACA_site8270]”, 8.77 ± 0.41; in that of “CACATACAGACATACACACATACACATATACGCATA [CACACA_site1745]”, 9.61 ± 0.36.
